# Hit rate of the full screen: of about 360,000 compounds, about 2,600 (0.72%) were called active. The shares of active, inactive and inconclusive entries below differ from those in the screen. The call rests on the fitted dose curve; in most records, active means well fitted inhibition curve with a large enough effect; inconclusive means small, poorly fitted or top-dose-only effect; inactive means no such curve, though single readings can be large or run the other way. Where the call is inconclusive, the potency comes from a doubtful curve fit.
# Test: Primary qHTS for Inhibitors of ATXN expression; further: nearly all actives have a fitted effect of over 55% in size
# Conditions: HEK-293 ATXN2-luciferase reporter, luminescence, 24 h; series mostly up to 57 µM
# Procedure, shortened: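 ATXN2-luciferase reporter cells (luciferase flanked by upstream and downstream ATXN2 gene portions) were treated 24 h at 37 °C with compounds at up to 57 uM. SteadyGlo luminescence gave expression; GF-AFC fluorescence gave viability.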
# Potency means the concentration at half of the fitted maximal effect; tags describe the fitted curve by direction and shape.
row,Compound,Potency
1,Cc1ccccc1NC(=S)N(C)Cc1cccs1,"inconclusive: 39.8 µM [inhibitor, single point]"
2,Cc1c(Cl)c([N+](=O)[O-])nn1Cc1ccc(C(=O)N/N=C\c2cc(Cl)ccc2O)o1,active: 2.82 µM
3,Cc1ccc(CN2CCN(CC(C)C)C(CCO)C2)s1 (stereo unspecified),inactive
4,COc1ccccc1OCCSc1nc(-c2ccc(C(C)(C)C)cc2)nc2cc(=O)[nH]n12,"inconclusive: 31.6 µM [inhibitor, single point]"
5,COc1ccc(NC(=O)CC2C(=O)N(Cc3ccccc3)C(=S)N2CCN2CCOCC2)cc1 (stereo unspecified),inactive
6,Cc1ccc2c(c1)nnn2C1CCN(S(=O)(=O)c2ccc(C(=O)N3CC(C)CC(C)C3)cc2)CC1 (stereo unspecified),"inconclusive: 31.6 µM [inhibitor, single point]"
7,O=C(Nc1ccc(Cl)c(C(F)(F)F)c1)[C@@H]1CC=C[C@@H]2CCN(Cc3ccccc3)C(=O)[C@@H]21,inactive
8,COc1ccc(-n2c(C)nc3c(cnn3-c3ccc(Cl)cc3)c2=O)cc1,inactive
9,COc1cccc(NC(=O)CN(C)C(=O)c2cccnc2Nc2cccc(C(F)(F)F)c2)c1,"inconclusive: 39.8 µM [inhibitor, single point]"
10,O=c1c2ccccc2c(-c2ccc(O)cc2)nn1-c1cccc(C(F)(F)F)c1,"inconclusive: 35.5 µM [inhibitor, single point]"
11,CC(C)C(=O)Nc1ccc(COc2ccccc2CN(Cc2ccccc2)C(=O)OC(C)(C)C)cc1,inactive
12,CS(=O)(=O)Nc1cccc(-c2cc(NC=O)c3ncc(-c4ccc(F)c(Cl)c4)n3c2)c1,"inconclusive: 35.5 µM [inhibitor, single point]"
13,O=C(/C=C/NNC(=O)c1ccccc1)c1ccc([N+](=O)[O-])cc1,active: 7.52 µM
14,CCCCCCCCN1C(=O)[C@H](CC(=O)NCCCOC)C[C@@]2(C(=O)OC)CCCCC=C12,"inconclusive: 28.2 µM [inhibitor, partial curve]"
15,Cc1ccc(N/C=C/C(=O)c2cccs2)cc1C,"inconclusive: 39.8 µM [inhibitor, single point]"
16,O=c1cc(CN2CCN(c3ccccc3)CC2)c2cc(O)c(-c3ccccc3)cc2o1,"inconclusive: 25.1 µM [inhibitor, partial curve, poor fit]"
17,COCCCn1cc(CN2CC(N3CCN(CCO)CC3)CS2(=O)=O)nn1 (stereo unspecified),inactive
18,NC(=S)N/N=C1\CC(n2nnn(-c3cccc(Cl)c3)c2=S)C2COC1O2 (stereo unspecified),inactive
19,COc1ccc(CC(N)c2csc(NC(=O)NCc3ccccc3)n2)cc1 (stereo unspecified),"inconclusive: 39.8 µM [inhibitor, single point]"
20,Cc1cc(NC(=O)c2cc(-c3cccc(Cl)c3)on2)n(-c2ccccc2)n1,inactive
21,CCCCOc1ccc(Br)cc1/C(C)=N/NC1=NCCN1,active: 17.8 µM

row,Compound,Potency
1,Cc1ccccc1C(=O)NC(=S)Nc1ccc(Cc2ccncc2)cc1,"inconclusive: 7.94 µM [inhibitor, single point]"
2,Cn1cc([C@@H]2C[C@H]3CN(Cc4cccc(Cl)c4)C(=O)[C@]34CCCN24)c(-c2ccccc2)n1,"inconclusive: 14.1 µM [inhibitor, partial curve, poor fit]"
3,O=C(Nc1ccc(Cl)cc1)c1cc2c(cc1O)[nH]c1ccccc12,"inconclusive: 37.7 µM [inhibitor, single point]"
4,COc1ccc2sc(N(CCCN(C)C)C(=O)c3ccc(S(=O)(=O)N4CCCc5ccccc54)cc3)nc2c1,"inconclusive: 39.8 µM [inhibitor, single point]"
5,CCCOC(=O)c1ccc(Oc2cn[nH]c2-c2ccc(OC)cc2O)cc1,"inconclusive: 31.6 µM [inhibitor, single point]"
6,Cc1nn(-c2ccccc2)c2c1C(c1ccncc1)C(C#N)=C(N)O2 (stereo unspecified),"inconclusive: 35.5 µM [inhibitor, partial curve, poor fit]"
7,Cc1ccc(CNC(=O)CCS(=O)(=O)c2ccc3nc(C)sc3c2)cc1,inactive
8,CCCCC1(Cc2cccc([N+](=O)[O-])c2)C(=O)N(c2ccccc2)N(c2ccccc2)C1=O,"inconclusive: 25.1 µM [inhibitor, partial curve, poor fit]"
9,CC(Oc1ccc(Cl)cc1Cl)c1ccnc2nc(N3CCOCC3)nn12 (stereo unspecified),"inconclusive: 25.1 µM [inhibitor, partial curve, poor fit]"
10,CCN1C(=O)c2ccccc2Sc2ccc(NC(=O)Nc3cccc([N+](=O)[O-])c3C)cc21,"inconclusive: 3.98 µM [inhibitor, single point]"
11,COc1ccc(CNC(=O)c2cnn3c(C)c(Cc4c(F)cccc4Cl)c(C)nc23)cc1,inactive
12,COc1ccc(N(C(=O)c2ccc(C(C)(C)C)cc2)S(=O)(=O)c2ccc(Cl)cc2)cc1,"inconclusive: 11.2 µM [inhibitor, partial curve, poor fit]"
13,O=[N+]([O-])c1ccccc1CN1CCN(Cc2ccccn2)CC1,inactive
14,CCN1CCC(O)(/C=C/c2ccc(C)cc2)C(C(=O)/C=C/c2ccc(C)cc2)C1 (stereo unspecified),"inconclusive: 25.1 µM [inhibitor, single point]"
15,O=C(NCCCN1CCN(c2cccc(Cl)c2)CC1)c1cnn(-c2ccc(F)cc2)c1-n1cccc1,active: 35.5 µM
16,O=S(=O)(Nc1cc(Sc2cccc3cccnc23)c(O)c2ccccc12)c1ccc(F)cc1,"inconclusive: 7.08 µM [inhibitor, full curve, poor fit]"
17,Cc1nn(-c2ccccc2)c(N2CCCC2)c1/C=N/Nc1ccc(S(=O)(=O)Nc2ccccc2)cc1[N+](=O)[O-],"inconclusive: 39.8 µM [inhibitor, single point]"
18,CC(C)Oc1cc(F)ccc1-c1cc(C(=O)Nc2cccc(C(F)(F)F)c2)[nH]n1,"inconclusive: 39.8 µM [inhibitor, single point]"
19,COc1cc(CCNC2=CC(=O)c3ncccc3C2=O)ccc1O,active: 23.8 µM
20,CCOc1ccc(-n2nc3ccc(NC(=O)Cc4ccccc4)cc3n2)cc1,"inconclusive: 39.8 µM [inhibitor, single point]"
